# Measured values published in the supplement of paper PMC10126150.
# Sequences with one replicate were seen in a single cluster, so their values are uncertain.
# Test system: ATP
# Assay: switch fluorescence ratio, 500 uM ATP over buffer (Cy3 cluster intensity, sum of 5 cycles each) (fold (ratio)); higher = stronger signal-on switching upon ATP binding; sequences stand for … in TCGTCGGCAGCGTCAGATGTGTATAAGAGACAGTTTTTTTTTTTTTTTTTTTTTTTTT…TC
# Settings: aptamer strand: ATP DNA aptamer (quencher-CACCTGGGGGAGTATTGCGGAGGAAGG + anchor), 100 nM annealed; ATP concentration: 500 uM; one replicate
# Outline: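 Exposure to 500 uM ATP lasted 15 min at 22 °C before imaging, and a selection-buffer image was taken beforehand, for Cy3-labelled switching-strand clusters on a modified Illumina MiSeq flow-cell annealed to 100 nM quencher-labelled ATP aptamer. Five buffer/ATP cycles were run with NaOH stripping and re-annealing between them. The fluorescence ratio per cluster is summed target-cycle over summed buffer-cycle Cy3 intensity, averaged per switch-domain sequence. Clusters outside 100-1000 RFU were excluded.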
row,Sequence,switch fluorescence ratio
1,AACAGGGCGC,1.04
2,AACAGGGG,1.13
3,AACAGGGGCG,1.04
4,AACAGTCGCA,1.01
5,AACAGTGCGG,1
6,AACATAAGTT,1.06
7,AACATCGATG,1.02
8,AACATCTTAA,0.996
9,AACATGCCCG,1.07
10,AACATTCAAT,1.01
11,AACCAAAA,0.988
12,AACCACGTGG,0.968
13,AACCATGATG,0.973
14,AACCATTGG,1.03
15,AACCCGCGCA,1.38
16,AACCCGGCCG,0.985
17,AACCCTGTAG,1.03
18,AACCGACCTT,1.54
19,AACCGATTTG,0.968
20,AACCGCTACG,1.25
21,AACCGCTATG,1.13
22,AACCGGAGTC,1.57
23,AACCGGTCTG,0.977
24,AACCGTATCT,1.09
25,AACCTAAGT,1.01
26,AACCTAGAGC,0.999

row,Sequence,switch fluorescence ratio
1,AACCTAGATG,1.03
2,AACCTATTTA,0.973
3,AACCTGAATC,1.76
4,AACGAACCGT,1.09
5,AACGAAGCCA,1.23
6,AACGAGCCAA,1.11
7,AACGAGGCTT,1.03
8,AACGATTGTT,1
9,AACGCCATTG,1.09
10,AACGCCTCC,1.52
11,AACGCTACTG,1.69
12,AACGGAAACT,1.05
13,AACGGACATA,1.28
14,AACGGACTGC,1.27
15,AACGGCCG,1.01
16,AACGGCGGTC,1.01
17,AACGGGAAAT,1.37
18,AACGGGAGCT,0.984
19,AACGGGCAGG,1.05
20,AACGGGTA,0.968
21,AACGGTAGCA,1.07
22,AACGTAAAA,1.02
23,AACGTCTACC,1.24
24,AACGTGCTTG,1.08
25,AACGTGGGCG,0.959
26,AACGTGTCCT,1.02

row,Sequence,switch fluorescence ratio
1,AACTACAATT,1.09
2,AACTACATCT,1.07
3,AACTAGCCCA,0.994
4,AACTAGGGC,1.04
5,AACTAGTGAC,1.04
6,AACTAGTTAT,1.01
7,AACTATATA,1.02
8,AACTATGTCT,0.96
9,AACTATTCCT,1.15
10,AACTATTGTT,0.971
11,AACTCCAAGA,1.55
12,AACTCGGGGC,0.944
13,AACTCGTCGA,1.04
14,AACTGCGTTT,0.982
15,AACTGGCGGG,0.992
16,AACTGGGGCT,1.03
17,AACTGGGTTT,1.02
18,AACTGTGTCT,0.994
19,AACTGTGTGG,0.962
20,AACTTATGTT,0.964
21,AACTTCCGGG,1.98
22,AACTTCGAAA,1.21
23,AACTTGACGC,1.14
24,AACTTGAGGA,0.962
25,AACTTGCCAT,1.02
26,AACTTGGTAC,1.03

row,Sequence,switch fluorescence ratio
1,AACTTGTCCG,0.98
2,AACTTGTGAA,1.03
3,AACTTTTCTC,1.13
4,AAGAAATGAG,1.05
5,AAGAACGACT,0.971
6,AAGAACGTTA,1.11
7,AAGAAGAGAT,1
8,AAGAAGCATG,0.989
9,AAGAAGGAAA,1.01
10,AAGAAGGAGT,0.984
11,AAGAATTCTG,0.973
12,AAGAATTTAT,1
13,AAGACCCAGC,0.994
14,AAGACCGTAG,0.957
15,AAGACCTCCG,1.18
16,AAGACCTGAG,1.06
17,AAGACGAAAA,0.982
18,AAGACGGAGC,1.16
19,AAGACTGATG,0.978
20,AAGACTGTAT,1.15
21,AAGAGAAGAA,1.03
22,AAGAGATAGC,1.11
23,AAGAGCGGAT,0.978
24,AAGAGGGCG,1.08
25,AAGAGGGTG,1.1
26,AAGAGGTCCT,1.08

row,Sequence,switch fluorescence ratio
1,AAGAGTAACA,1.02
2,AAGAGTTTAG,0.996
3,AAGATAACAC,1.03
4,AAGATCGCTC,0.971
5,AAGATCTGTT,1.02
6,AAGATGATAT,0.974
7,AAGATGGAAC,1.03
8,AAGATTATAA,1.01
9,AAGATTCAAT,0.98
10,AAGATTCTGG,0.995
11,AAGATTGCCA,0.984
12,AAGATTGGTC,0.917
13,AAGATTTCTA,1.03
14,AAGCAAATAG,2.14
15,AAGCAATAGG,2.93
16,AAGCACCTGG,1.07
17,AAGCATAAAT,0.968
18,AAGCATCGAG,1.01
19,AAGCCATATT,1
20,AAGCCCATGC,1.04
21,AAGCCGTCTG,1.08
22,AAGCCTCGGG,1.02
23,AAGCGCGGGT,0.993
24,AAGCGCTGGT,0.983
25,AAGCGGAGAC,1.23
26,AAGCGGGGCA,0.967

row,Sequence,switch fluorescence ratio
1,AAGCTCTATG,0.964
2,AAGCTGCAAT,1.72
3,AAGCTGGACT,1.01
4,AAGCTTAGTA,0.979
5,AAGCTTCGTC,1.17
6,AAGCTTCTGC,1.02
7,AAGGAACATG,0.995
8,AAGGAATGCG,1.02
9,AAGGACTACT,1.02
10,AAGGAGCGAA,1.02
11,AAGGAGGGAA,0.987
12,AAGGAGTTA,1.05
13,AAGGCACGTC,0.998
14,AAGGCAGAAC,1.27
15,AAGGCCAAT,0.996
16,AAGGCGAGTT,1.01
17,AAGGCGCGAG,1.03
18,AAGGCGTAAA,0.985
19,AAGGCGTAGG,0.953
20,AAGGCGTATG,0.972
21,AAGGCTGGAG,0.977
22,AAGGGAAAA,1.05
23,AAGGGAATCA,1.04
24,AAGGGAGCCG,0.99
25,AAGGGATAAA,0.963
26,AAGGGCCATG,1.01

row,Sequence,switch fluorescence ratio
1,AAGGGGATCT,1.01
2,AAGGGGGACC,1.09
3,AAGGGGTGAT,1.01
4,AAGGGGTGT,0.96
5,AAGGGTGCCG,0.995
6,AAGGGTGGCG,1
7,AAGGGTTGTA,0.993
8,AAGGTAGGTA,0.974
9,AAGGTATCGA,0.965
10,AAGGTATCGT,0.972
11,AAGGTGACGG,0.99
12,AAGGTGCTTA,1.12
13,AAGGTGGGAT,1.02
14,AAGGTGTGGA,1.03
15,AAGGTTATCA,0.964
16,AAGGTTATTT,1.02
17,AAGGTTCGCC,0.962
18,AAGGTTTACT,1.02
19,AAGTAATACC,1.3
20,AAGTAGCAGC,1.05
21,AAGTAGCGAG,0.986
22,AAGTAGCGGT,0.962
23,AAGTAGGCTA,0.976
24,AAGTATGGAA,1.02
25,AAGTATTTAC,1.03
26,AAGTCAAGG,0.996

row,Sequence,switch fluorescence ratio
1,AAGTCACAAA,1.08
2,AAGTCACAAG,1.02
3,AAGTCGAATT,1.02
4,AAGTCGCCTT,0.964
5,AAGTCGCTAG,1
6,AAGTCGGCGG,0.991
7,AAGTCGTAGA,0.98
8,AAGTCTGCGC,1
9,AAGTCTGTAA,1.02
10,AAGTGAATAG,1.04
11,AAGTGATTTA,0.948
12,AAGTGCAATT,1.03
13,AAGTGCATTT,1.02
14,AAGTGCTTCA,1
15,AAGTGGACAG,0.989
16,AAGTGGACGT,0.939
17,AAGTGTCCGC,1.03
18,AAGTTAACGC,1.03
19,AAGTTAATCA,1.01
